# Results reported in PubChem BioAssay AID588795 (National Center for Advancing Translational Sciences (NCATS), 2011).
# The campaign covered roughly 390,000 compounds. About 1,400 (0.36%) were called active. Inconclusive results, whose numbers are uncertain, are shown with a selection of clear calls. Calls come from the whole dose curve; as a rule, active = well fitted inhibition curve with a large enough effect; inconclusive = small, poorly fitted or top-dose-only effect; inactive = no such curve, though single readings can be large or run the other way. Potencies of inconclusive entries are doubtful fits and often do not repeat.
# Target: Flap endonuclease 1 (Homo sapiens) (UniProt P39748)
# Assay: qHTS Assay for the Inhibitors of Human Flap endonuclease 1 (FEN1). Note: nearly all actives have a fitted effect of over 65% in size.
# Settings: Recombinant FEN1 flap cleavage, fluorescence, 15 min; series mostly up to 114 µM; activity change, negative = inhibition: at the top concentration
# Summary of the method: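 FEN1 at 10 nM preincubated with compounds 15 min at room temperature, then flap DNA substrate added at 50 nM final. Signal read at 0 and 15 min; concentration-response fitted with four-parameter Hill equation.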
# % is set by controls: 0 for no effect and ±100 for the full control effect; potency is the fitted concentration of half-maximal effect; tags give direction and shape of the fitted curve.
# Chain of UniProt P39748 (P39748 whole entry, looked up): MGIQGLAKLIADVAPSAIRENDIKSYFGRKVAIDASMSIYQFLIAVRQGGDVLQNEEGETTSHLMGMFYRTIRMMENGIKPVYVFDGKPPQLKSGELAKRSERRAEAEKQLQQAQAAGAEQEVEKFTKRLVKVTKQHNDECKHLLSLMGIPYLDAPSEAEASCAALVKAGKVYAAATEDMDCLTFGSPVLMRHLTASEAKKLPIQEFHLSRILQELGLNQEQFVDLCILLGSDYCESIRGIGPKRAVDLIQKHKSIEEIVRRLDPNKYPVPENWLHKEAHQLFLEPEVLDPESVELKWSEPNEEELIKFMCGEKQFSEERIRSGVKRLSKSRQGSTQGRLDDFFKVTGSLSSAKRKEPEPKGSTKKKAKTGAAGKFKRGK
SMILES,"activity change, negative = inhibition",Potency
O=[N+]([O-])c1cc(C(F)(F)F)ccc1NCC1CCCO1 (centres undefined),inactive: 11%,
CN(C)C(CNC(=O)c1cc(-c2ccco2)nc2ccccc12)c1ccccc1 (centres undefined),,"inconclusive: 44.7 µM [inhibitor, partial curve, poor fit]"
O=c1[nH]c2ccccc2c2nc3ccccn3c12,,"inconclusive: 44.7 µM [inhibitor, partial curve]"
O=C(CN1/C(=C(/O)c2ccccc2)C(=O)c2ccccc2S1(=O)=O)c1ccccc1,,"inconclusive: 89.1 µM [inhibitor, partial curve, poor fit]"
Cc1coc2c(O)cc3c(c12)OC1(N2CCCCC2)C(=O)NCCCC31 (centres undefined),,"inconclusive: 56.2 µM [inhibitor, partial curve, poor fit]"
O=C1c2ccccc2-c2onc3ccc(NCCCn4ccnc4)c1c23,,active: 15.8 µM
Nc1ccc2nc3c(=O)n(CCc4ccccc4)c(=O)[nH]c3nc2c1,,"inconclusive: 17.8 µM [inhibitor, partial curve, poor fit]"
O=C1C=C(O)c2[nH]c(=O)ccc2C1=O,,"inconclusive: 31.6 µM [inhibitor, partial curve, poor fit]"
O=C(CCc1ccc(S(=O)(=O)N2CCOCC2)cc1)Nc1nc(COc2ccccc2)cs1,,"inconclusive: 89.1 µM [inhibitor, partial curve, poor fit]"
CCOc1ccc(NC(=O)CSc2nc3c(c(=O)[nH]2)CCCC3)cc1,inactive: 10.7%,
COc1ccccc1N1CCN(C(=O)c2ccc(CSc3ccccc3)cc2)CC1,,"inconclusive: 89.1 µM [inhibitor, partial curve, poor fit]"
CN(C)CCCN(C(=O)CCOc1ccccc1)c1nc2c(F)cccc2s1,,"inconclusive: 56.2 µM [inhibitor, partial curve]"
CC(C)CCSc1nnc(Cn2c(=O)sc3ccccc32)n1C,,"inconclusive: 39.8 µM [inhibitor, single point]"
O=C(O)c1ccccc1C(=O)Nc1ccc(Br)c(C(F)(F)F)c1,inactive: 6.56%,
O=C1Nc2cc(C(=O)NCCCN3CCCC3)ccc2S/C1=C/c1ccccc1F,,"inconclusive: 89.1 µM [inhibitor, single point]"
Nc1nonc1C(=O)NCCNCc1ccccc1OCc1ccc(F)cc1,inactive: 8.68%,
COc1cccc(-c2cc(C(=O)Nc3ccncc3)c3ccccc3n2)c1,,"inconclusive: 56.2 µM [inhibitor, partial curve, poor fit]"
CCOc1cc(CNC(=O)c2ccc3c(c2)N(C)C(=O)C2CCCCN32)cc(OCC)c1OCC (centres undefined),inactive: 4.32%,
O=C(O)c1ccc(-n2cccc2/C=C2/NC(=O)N(c3ccccc3)C2=O)cc1,,"inconclusive: 56.2 µM [inhibitor, partial curve, poor fit]"
OC(CN1CCCCC1)Cn1c2ccccc2c2cc(Br)ccc21 (centres undefined),,"inconclusive: 79.4 µM [inhibitor, single point]"
O=c1c2cc(N3CCOCC3)ccc2[nH]c(=S)n1Cc1ccco1,,"inconclusive: 89.1 µM [inhibitor, partial curve, poor fit]"
COc1cccc(C(=O)C2CCCN(Cc3cccc(-n4nc(C)cc4C)c3)C2)c1 (centres undefined),,"inconclusive: 100 µM [inhibitor, single point]"

SMILES,"activity change, negative = inhibition",Potency
COc1cccc(CN(C)C(=O)CN2C(=O)NC(c3ccccc3)(c3ccccc3)C2=O)c1,,"inconclusive: 79.4 µM [inhibitor, partial curve, poor fit]"
CCN(CC)c1cc(C)c(/C=C/c2ccnc3ccccc23)cc1C,,"inconclusive: 50.1 µM [inhibitor, partial curve, poor fit]"
Cn1c(N)c(C(=O)COC(=O)c2cc(-c3ccco3)nc3ccccc23)c(=O)n(C)c1=O,,active: 39.8 µM
N#CNc1nc(O)cc(=O)[nH]1,,"inconclusive: 50.1 µM [inhibitor, partial curve]"
COc1ccc(-c2cc(C(F)(F)F)nc(-n3nc(C(F)(F)F)cc3C)n2)cc1,,"inconclusive: 17.8 µM [inhibitor, partial curve, poor fit]"
COc1ccccc1C1/C(=C(/O)c2ccccc2)C(=O)C(=O)N1CC(C)C (centres undefined),,"inconclusive: 50.1 µM [inhibitor, partial curve]"
CCCCNc1oc(-c2cccs2)nc1S(=O)(=O)c1ccccc1,,"inconclusive: 89.1 µM [inhibitor, partial curve, poor fit]"
CC(C)(C)OC(=O)N1CCC(c2cc(=O)n3[nH]cc(C(=O)Nc4ccc(F)c(Cl)c4)c3n2)CC1,inactive: 15.7%,
COc1cc(/C=N/NC(=O)c2ccc(NS(=O)(=O)c3cccs3)cc2)cc(OC)c1O,,"inconclusive: 31.6 µM [inhibitor, partial curve]"
CC(=O)OCC1(O)CC23CCC4c5ccoc5CCC4(C)C2CCC1C3 (centres undefined),,"inconclusive: 20 µM [inhibitor, full curve, poor fit]"
COC(=O)c1ccc(=O)c2nc3/c(=C/O)c(O)cc(=O)c3[nH]c12,,active: 39.8 µM
O=C1NC(=O)/C(=C/c2ccc(-c3cccc([N+](=O)[O-])c3)o2)S1,,"inconclusive: 56.2 µM [inhibitor, partial curve, poor fit]"
CN(C)S(=O)(=O)c1ccc(NC(=O)N2CCN(c3ccccc3Cl)CC2)cc1,,"inconclusive: 89.1 µM [inhibitor, partial curve, poor fit]"
COC(=O)c1ccc2c(c1)N(CC(=O)Nc1cccc(Cl)c1C)C(=O)c1ccccc1S2,inactive: 6.41%,
CC(CCc1ccccc1)NC(=O)COC(=O)c1cccc(N(C)C)c1 (centres undefined),,"inconclusive: 89.1 µM [inhibitor, partial curve, poor fit]"
CN(C)c1ccc(C=c2c3ccccc3n3c2cc(-c2ccccc2)[n+]3C)cc1,,active: 8.91 µM
Fc1cccc(-c2cc3nc4c(c(N5CCOCC5)n3n2)CCCC4)c1,,"inconclusive: 89.1 µM [inhibitor, partial curve, poor fit]"
CCN1CCN(c2cc(C)c3cc(NC(=O)c4cncc(Br)c4)ccc3n2)CC1,,"inconclusive: 56.2 µM [inhibitor, partial curve]"
O=C(O)c1cc(NCc2cc(O)ccc2O)ccc1O,,active: 8.91 µM
COc1ccc(-c2nn(-c3ccccc3)cc2C(=O)N(C)CC(=O)Nc2ccccc2Br)cc1,,"inconclusive: 79.4 µM [inhibitor, single point]"
Cn1c(C(=O)NCCCN2CCCCCC2)cc2c(=O)n(C)c3ccccc3c21,,"inconclusive: 20 µM [inhibitor, full curve]"
O=C1C[C@@H](c2ccccc2Cl)N1S(=O)(=O)c1ccccc1[N+](=O)[O-],inactive: 13.9%,

SMILES,"activity change, negative = inhibition",Potency
CCC1CCCCN1CCCNC(=O)c1cc2c(=O)n(CC)c3ccccc3c2s1 (centres undefined),inactive: -3.03%,
CCOc1cc(/C=N/NC(=O)COc2ccc(C)cc2)ccc1OC(=O)c1cccs1,,"inconclusive: 89.1 µM [inhibitor, single point]"
Cc1ccc(-c2nn(-c3ccccc3)cc2C2CC(c3cccs3)=NN2C(=O)CCCC(=O)O)cc1 (centres undefined),,active: 50.1 µM
C(=C\c1c[nH]c2ccccc12)/c1cc[n+](C2CCCCC2)cc1,,"inconclusive: 56.2 µM [inhibitor, partial curve, poor fit]"
Cc1nnc(SCc2ccc(Cl)c(Cl)c2)s1,inactive: -7.05%,
O=C(CSc1nccn1Cc1ccccc1)Nc1ccc2c(c1)OCO2,inactive: 14.5%,
CC(C)C[C@@H](CNC(=O)OC(C)(C)C)NC(=O)c1nc[nH]c1C(=O)N[C@@H](CC(C)C)C(=O)CNC[C@H](CC(C)C)NC(=O)c1nc[nH]c1C(=O)N[C@@H](Cc1c[nH]c2ccccc12)C(=O)OC(C)(C)C,,"inconclusive: 31.6 µM [inhibitor, partial curve, poor fit]"
COc1cccc(CNC(=O)C2CCN(S(=O)(=O)c3c(C)nn(C)c3C)CC2)c1,inactive: -6.09%,
CN(C)c1cccc(C(=O)Nc2ccc3nc4n(c(=O)c3c2)CCCCC4)c1,,"inconclusive: 89.1 µM [inhibitor, partial curve, poor fit]"
Cc1c(NC(=O)Cc2cccs2)cccc1[N+](=O)[O-],inactive: 4.33%,
Cc1ccc2cc(C)c(Sc3nnnn3-c3ccccc3)nc2c1,inactive: -6.54%,
COC(=O)c1ccc(NC(=O)c2cn(-c3ccccc3)nc2-c2ccncc2)cc1,,"inconclusive: 89.1 µM [inhibitor, single point]"
Cc1cc(C(=O)N/N=C/c2ccc(N(C)C)o2)cs1,,"inconclusive: 89.1 µM [inhibitor, partial curve, poor fit]"
O=S(=O)(c1ccccc1)N1N=C(c2ccc(Br)cc2)CC1c1ccco1 (centres undefined),,"inconclusive: 89.1 µM [inhibitor, single point]"
Cc1ccc(-c2csc3ncn(CC#N)c(=O)c23)cc1,inactive: -19.7%,
CC(C)(C)NC(=O)C(c1ccc(O)cc1)N(Cc1ccco1)C(=O)Cn1nnc(-c2cccs2)n1 (centres undefined),,"inconclusive: 89.1 µM [inhibitor, partial curve, poor fit]"
c1coc(CSSCc2ccco2)c1,,"inconclusive: 17.8 µM [inhibitor, full curve, poor fit]"
O=c1c([N+](=O)[O-])c(O)c2cccc3c2n1CCC3,,"inconclusive: 56.2 µM [inhibitor, partial curve, poor fit]"
O=C(Nc1ccc(O)c(-c2nc3ccccc3o2)c1)C1(c2ccc(Br)cc2)CCCC1,,"inconclusive: 89.1 µM [inhibitor, single point]"
CCN(CC)S(=O)(=O)c1cccc(N=Nc2sc(N)nc2C)c1,,"inconclusive: 44.7 µM [inhibitor, partial curve, poor fit]"
